PubChem BioAssay (Tox21)
Values joined by “and” are separate entries in the source; they are usually repeats but may differ in a detail not shown here. Equal entries are not always repeated. The shares of active, inactive and inconclusive entries below differ from those in the screen. A potency beside an inconclusive call is a rough fit, not a confirmed value. Active and inactive are the calls of the source. Calls follow the shape of the dose curve; as a rule, active = well fitted cell-killing curve with a large enough effect in the repeat runs; inconclusive = weak or mixed curves; inactive = flat fitted curve, though single readings scatter.

assay: qHTS RealTime-Glo MT Cell Viability Assay in HepG2 cells - 8 hour (AID 1224873); details: RealTime-Glo luminescence; series mostly up to 76.8 µM; also: nearly all actives have a fitted effect of over 55% in size
Text: National Center for Advancing Translational Sciences [NCATS]
NIH Chemical Genomics Center [NCGC]
U.S. Environmental Protection Agency [EPA]
National Institutes of Environmental Health Sciences [NIEHS]
National Toxicology Program [NTP]
U.S. Food and Drug Administration [FDA]
Measure of cell viability is critical in the cell-base assay. Analysis of cell viability is necessary for the characterization of cell responses to cytotoxic drugs and environmental stress. A RealTime-Glo MT Cell Viability Assay to monitor cell viability in real time of continues cell culture during 40 hours of compound treatment was used to screen Tox21 10K library compounds in HepG2 cells. The RealTime-Glo MT Cell Viability Assay is a nonlytic, homogeneous, bioluminescent method to measure cell viability in real time using a simple, plate-based method. The assay involves adding NanoLuc luciferase and a cell-permeant prosubstrate to cells in culture. Viable cells reduce the proprietary prosubstrate to generate a substrate for NanoLuc luciferase. This substrate diffuses from cells into the surrounding culture medium, where it is rapidly used by the NanoLuc Enzyme to produce a luminescent signal. The signal correlates with the number of viable cells, making the assay well suited for cytotoxicity studies.
Tox21 Assay Protocol Summary:
The mixture of HepG2 cell suspension and reagents were dispensed at 600cells/6 ul/well in 1536-well tissue culture treated black solid bottom plates using a Multidrop dispenser. After the assay plates were incubated at a 37 C/5% CO2 incubator for 5 hours, 23 nL of compounds dissolved in DMSO, positive and negative controls was transferred to the assay plate by a pintool work station. The plates were incubated at 37 C for 40 hours. The luminescence intensity were measured at 0h, 8h, 16h, 24h, 32h and 40h time points using ViewLux plate reader during compound treatment.
Potency is read from the fitted curve at half-maximal effect; tags tell the direction and shape of the fitted curve.

Row | SMILES | Potency
1 | C=CC(=O)OCC1CC2CC1C1CCC(COC(=O)C=C)C21 (stereo not given) | inconclusive: 7.76 µM [falling, full curve]
2 | NCCc1cnc[nH]1 | inactive
3 | CCCCCCCCN | inactive
4 | CCN1/C(=C/C=C/c2sc3ccccc3[n+]2CC)Sc2ccccc21 | inconclusive: 1.65 µM [falling, partial curve, poor fit]
5 | C=CC(=O)OCCn1c(=O)n(CCOC(=O)C=C)c(=O)n(CCOC(=O)C=C)c1=O | inconclusive: 6.92 µM [falling, full curve]
6 | CN(C/C=C/c1ccccc1)Cc1cccc2ccccc12 | inconclusive: 21.3 µM [falling, partial curve]
7 | COc1cc(C)ccc1O | inactive
8 | COc1ccc2cc(S(=O)(=O)N[C@H](CC(=O)N[C@H](Cc3ccc(CN4[C@H](C)CCC[C@@H]4C)cc3)C(=O)N(C)C(C)C)c3ccc4c(c3)OCO4)ccc2c1 | active: 52 µM
9 | CNC[C@H](O)[C@@H](O)[C@H](O)[C@H](O)CO | inactive
10 | O=C(Nc1ccc2c(O)c(N=Nc3ccc(N=Nc4ccc(S(=O)(=O)O)cc4)cc3)c(S(=O)(=O)O)cc2c1)c1ccccc1 | inconclusive: 49 µM [falling, partial curve, poor fit]
11 | Oc1cc2c(cc1O)[C@H]1c3ccc(O)c(O)c3OC[C@@]1(O)C2 | active: 39.4 µM
12 | C[n+]1c2cc(N)ccc2cc2ccc(N)cc21 (tested in a mixture with another compound) | inconclusive: 8.49 µM [falling, partial curve, poor fit]
13 | CCCCCCn1c(=O)c2c(ncn2C)n(C)c1=O | inconclusive: 6.74 µM [falling, full curve]
14 | CNS(=O)(=O)c1cc(C(=O)N2CCC(CCN3C4CCC3CC(n3c(C)nc5ccccc53)C4)(c3cccc(F)c3)CC2)c(Cl)cc1F (stereo not given) | inconclusive: 12.3 µM [falling, full curve]
15 | C[C@]12CC[C@H]3C(=CCc4cc(O)ccc43)[C@@H]1CCC2=O | inconclusive: 49 µM [falling, partial curve, poor fit]
16 | Oc1c(I)cc(Cl)c2cccnc12 | inconclusive: 54.9 µM [falling, partial curve, poor fit]
17 | C(=C\c1ccccc1)/c1ccccc1 | inactive
18 | CN(C)c1ccc(C2(c3ccc(N(C)C)cc3)OC(=O)c3cc(N(C)C)ccc32)cc1 | inconclusive: 27.5 µM [falling, partial curve]
19 | CC1=C(Br)C(=O)C(Br)=C/C1=C(/c1ccccc1S(=O)(=O)O)c1cc(Br)c(O)c(Br)c1C | inactive
20 | Nc1ccc(O)c(N)c1 | inconclusive: 54.9 µM [falling, single point]

Row | SMILES | Potency
21 | C=CCCC=C | inactive
22 | CCCCCCCCCCCCOC(C)=O | inactive
23 | O=C(CCCCCCCCC#CI)Oc1ccccc1 | inconclusive: 26.8 µM [falling, single point]
24 | Nc1ccc(S(N)(=O)=O)cc1 | inactive
25 | COc1ccc(OC(F)(F)F)cc1CN[C@H]1CCCN[C@H]1c1ccccc1 | inconclusive: 61.6 µM [falling, partial curve, poor fit]
26 | Cc1cc(C2(c3cc(C)c(O)cc3C)OS(=O)(=O)c3ccccc32)c(C)cc1O | inconclusive: 24.6 µM [falling, partial curve] and inconclusive: 24.5 µM [falling, partial curve]
27 | C[C@@H]1CN(CCCn2c3ccccc3c3ccccc32)C[C@H](C)N1 | inconclusive: 23.9 µM [falling, partial curve, poor fit]
28 | O=c1[nH]sc2cc(Cl)ccc12 | inconclusive: 26.8 µM [falling, single point]
29 | O=C1CCc2ccc(OCCCCN3CCN(c4cccc(Cl)c4Cl)CC3)cc2N1 | inconclusive: 26.8 µM [falling, partial curve, poor fit]
30 | O=C1OC2(c3ccc(O)cc3Oc3cc(O)ccc32)c2ccccc21 | inconclusive: 24.5 µM [falling, partial curve] and inconclusive: 10.7 µM [falling, partial curve]
31 | Cc1c(O)cccc1C(=O)N[C@@H](CSc1ccccc1)[C@H](O)CN1C[C@H]2CCCC[C@H]2C[C@H]1C(=O)NC(C)(C)C | inconclusive: 53.5 µM [falling, partial curve]
32 | CN1CCCC1=O | inactive
33 | O=C(CCN1CCC(c2ccccc2)C1)c1ccc2c(c1)OCCO2 (stereo not given) | inconclusive: 26.8 µM [falling, single point]
34 | CNC(=O)c1cc(Oc2ccc(NC(=O)Nc3ccc(Cl)c(C(F)(F)F)c3)cc2)ccn1 | inconclusive: 19 µM [falling, partial curve]
35 | CCCCCCOC(=O)NC(=N)c1ccc(NCc2nc3cc(C(=O)N(CCC(=O)OCC)c4ccccn4)ccc3n2C)cc1 | inconclusive: 23.9 µM [falling, single point]
36 | CC(=O)[C@H]1CC[C@H]2[C@@H]3CCC4=CC(=O)CC[C@]4(C)[C@H]3CC[C@]12C | inconclusive: 43.4 µM [falling, partial curve] and inconclusive: 38.9 µM [falling, partial curve]
37 | CCOC(=O)Cn1cccc1-c1nc(-c2ccc(OC)cc2)c(-c2ccc(OC)cc2)s1 | inconclusive: 21.3 µM [falling, partial curve, poor fit]
38 | O=[N+]([O-])c1ccc(O)c2ncccc12 | inconclusive: 23.9 µM [falling, partial curve, poor fit]
39 | OCCOCCN1CCN(C(c2ccccc2)c2ccc(Cl)cc2)CC1 (stereo not given) | inconclusive: 38.4 µM [falling, partial curve]
40 | Nc1c(N=Nc2ccc(-c3ccc(N=Nc4cc(S(=O)(=O)O)c5ccccc5c4N)cc3)cc2)cc(S(=O)(=O)O)c2ccccc12 | active: 38.9 µM
